# About 2,200 (0.71%) of roughly 310,000 compounds showed an effect of 50% or more. Effects have a minus sign here. This is one part of the list.
# Target: human ether-à-go-go-related gene (hERG) potassium channel (human, UniProt Q12809)
# Assay: primary screen, population patch clamp on CHO cells stably expressing hERG
# human ether-à-go-go-related gene (hERG) potassium channel, sequence (Q12809 whole entry, looked up): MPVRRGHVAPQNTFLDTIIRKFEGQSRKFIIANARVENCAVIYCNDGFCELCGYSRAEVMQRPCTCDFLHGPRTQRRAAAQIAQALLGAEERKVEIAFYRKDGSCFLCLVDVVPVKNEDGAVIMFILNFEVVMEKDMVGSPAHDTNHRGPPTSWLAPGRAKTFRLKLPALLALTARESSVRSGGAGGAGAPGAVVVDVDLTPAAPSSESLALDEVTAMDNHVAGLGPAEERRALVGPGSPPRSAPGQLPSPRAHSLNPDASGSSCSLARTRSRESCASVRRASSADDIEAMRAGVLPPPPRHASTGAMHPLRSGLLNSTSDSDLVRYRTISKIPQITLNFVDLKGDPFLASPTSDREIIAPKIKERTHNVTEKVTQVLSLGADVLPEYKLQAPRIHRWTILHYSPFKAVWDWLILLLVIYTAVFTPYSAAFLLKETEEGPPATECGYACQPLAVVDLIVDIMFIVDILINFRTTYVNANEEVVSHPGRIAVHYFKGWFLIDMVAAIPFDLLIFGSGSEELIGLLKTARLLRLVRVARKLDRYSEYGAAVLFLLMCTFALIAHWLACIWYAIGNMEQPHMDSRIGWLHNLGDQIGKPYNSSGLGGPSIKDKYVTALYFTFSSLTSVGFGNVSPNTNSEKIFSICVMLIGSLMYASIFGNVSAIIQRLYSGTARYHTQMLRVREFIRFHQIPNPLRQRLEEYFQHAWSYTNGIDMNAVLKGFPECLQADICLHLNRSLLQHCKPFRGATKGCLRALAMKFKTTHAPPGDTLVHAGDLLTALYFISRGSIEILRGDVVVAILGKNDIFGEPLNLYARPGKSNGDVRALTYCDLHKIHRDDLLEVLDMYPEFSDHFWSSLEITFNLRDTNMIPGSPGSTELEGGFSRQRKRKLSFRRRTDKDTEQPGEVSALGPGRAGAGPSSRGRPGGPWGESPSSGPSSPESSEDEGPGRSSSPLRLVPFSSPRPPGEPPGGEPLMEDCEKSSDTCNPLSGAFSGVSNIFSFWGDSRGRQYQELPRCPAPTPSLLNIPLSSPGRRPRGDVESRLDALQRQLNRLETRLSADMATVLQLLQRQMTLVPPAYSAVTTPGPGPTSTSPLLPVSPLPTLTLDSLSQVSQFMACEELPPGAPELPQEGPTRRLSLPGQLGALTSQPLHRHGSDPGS
row,SMILES,"hERG current change (%, negative = inhibition) at 1uM"
1,NC1=NC(=O)/C(=C/C=C/c2cccs2)S1,10.4%
2,CC(C)CN1CC(=O)N2C(c3ccccc3)c3[nH]c4ccccc4c3C[C@H]2C1=O (stereo partly drawn),15.6%
3,O=C(NCC1(N2CCOCC2)CCCCC1)c1cccc(S(=O)(=O)Nc2ccc(F)cc2)c1,13%
4,CC(C)OC(=O)CC(=O)CSc1nc2c(cc1C#N)CCCCC2,12.2%
5,Cc1ccc(NC(=O)CCC(=O)OCC(=O)c2ccc(Oc3ccc([N+](=O)[O-])cc3)cc2)cc1C,11.3%
6,Cc1cc(/C=C(\C#N)C(=O)NC2CCCCCC2)c(C)n1C,13.1%
7,COC(=O)c1c(-c2cccs2)csc1NC(=O)CSc1ncnc2sc(C)c(C)c12,2.58%
8,CCCCCCCCCC[n+]1cccc(C(=O)N(CC)CC)c1.[Br-],3.8%
9,O=C(CNC(=O)c1ccccc1O)N/N=C/c1ccccn1,4.2%
10,CCCCn1c(N)c(N(CCC)C(=O)C2CCCC2)c(=O)[nH]c1=O,-2.47%
11,COc1ccc(OC)c(NC(=O)Nc2cc(NC(=O)Nc3cc(OC)ccc3OC)c(C)nc2C)c1,10.7%
12,Cn1c(CC(=O)Nc2ccccc2C(F)(F)F)c(Sc2ccccc2)c2ccccc21,11.6%
13,COc1ccccc1C(C[N+](=O)[O-])c1c(N)n(C)c(=O)n(C)c1=O (stereo not drawn),9.69%
14,Cc1ccc(SCc2ccc(C(=O)Nc3ccccc3Br)cc2)cc1,-14.7%
15,CCOC(=O)C(NS(=O)(=O)c1ccc(Br)cc1)C(C)C (stereo not drawn),-9.42%
16,CCN1CCN(S(=O)(=O)c2ccc(Cl)c(C(=O)Nc3cc(Cl)ccc3N3CCOCC3)c2)CC1,-0.742%
17,c1ccc(Cc2noc(CN3CCN(Cc4ccc5c(c4)OCO5)CC3)n2)cc1,7.44%
18,CN(CCc1ccccn1)C(=O)c1cccnc1Oc1ccc(Cl)cc1,6.51%
19,COc1ccc2c(CCN)c[nH]c2c1.Cl,14.4%
20,Cc1ccc(N2CCN(S(=O)(=O)c3ccc4oc(=O)ccc4c3)CC2)c(C)c1,20%
21,Cc1ccccc1OCC(=O)NNC(=O)CCc1ccccc1,-2.18%
22,O=C(NCCCN1CCOCC1)C(C(=O)NCCCN1CCOCC1)c1ncc(C(F)(F)F)cc1Cl,18.1%
23,C#CCOC(=O)CCC(=O)NCCc1ccccc1,7.64%
24,Cc1ccccc1OCC(O)CN1CCN(CCN2C(=O)c3cccc4cccc(c34)C2=O)CC1 (stereo not drawn),-17.3%

# — article PMC4336329 (PLoS ONE, 2015)
